# From ChEMBL document CHEMBL5606460, “ASAP - DENV-2 NS2B-NS3 protease fluorescence single point” (2024)
# In all, about 2,000 compounds went through this assay and about 110 (5.5%) showed an effect of 50% or more. This is one part of the list.
# Molecular target: Genome polyprotein (dengue virus type 2) (UniProt P29990)
# [1] = Thailand/16681/1984, Concentration 25.0 uM, Number of replicates 1.0
compound,measurement,setting,value
C[C@@H](Cc1ccc(O)cc1)NC(=O)C1CCN(c2ccc(C=O)cc2)CC1,inhibition,[1],12.7%
COc1cc(CS(=O)(=O)CCCC(F)(F)F)nc(N2CCNCC2)n1,inhibition,"Thailand/16681/1984, Concentration 49.5 uM, Number of replicates 2.0, Standard deviation 0.8484998484591365 %",-2.49%
same,inhibition,"Thailand/16681/1984, Concentration 99.01 uM, Number of replicates 2.0, Standard deviation 0.7897198726239637 %",-1.19%
same,inhibition,"Thailand/16681/1984, Concentration 198.0 uM, Number of replicates 2.0, Standard deviation 1.3519394442089752 %",0.271%
c1ccc2c([C@H]3CCN(C[C@H]4CCOC4)C3)c[nH]c2c1,inhibition,"Thailand/16681/1984, Concentration 49.5 uM, Number of replicates 2.0, Standard deviation 1.7417878041316477 %",-0.7%
same,inhibition,"Thailand/16681/1984, Concentration 99.01 uM, Number of replicates 2.0, Standard deviation 0.9998751017735912 %",1.19%
same,inhibition,"Thailand/16681/1984, Concentration 198.0 uM, Number of replicates 2.0, Standard deviation 1.077372240151361 %",3.4%
O=C(NCc1nc(CO)cs1)[C@]1(c2ccc(F)cc2)CCCNC1,inhibition,"Thailand/16681/1984, Concentration 49.5 uM, Number of replicates 2.0, Standard deviation 0.7429134792759478 %",-2.21%
same,inhibition,"Thailand/16681/1984, Concentration 99.01 uM, Number of replicates 2.0, Standard deviation 0.3053293037018969 %",-1.85%
same,inhibition,"Thailand/16681/1984, Concentration 198.0 uM, Number of replicates 2.0, Standard deviation 0.2612443323622294 %",-1.1%
Cc1cc(CO)c2cccc(NC(=O)c3cc(C(F)F)nn3C)c2n1,inhibition,"Thailand/16681/1984, Concentration 49.95 uM, Number of replicates 2.0, Standard deviation 2.6240439065001295 %",9.2%
same,inhibition,"Thailand/16681/1984, Concentration 99.9 uM, Number of replicates 2.0, Standard deviation 2.105181135153063 %",15.2%
CN(C)Cc1ccc(C(=O)Nc2cc(Cl)cc(C(=O)NC(C)(C)CO)c2)[nH]1,inhibition,"Thailand/16681/1984, Concentration 49.5 uM, Number of replicates 2.0, Standard deviation 0.5051399787428742 %",0.205%
same,inhibition,"Thailand/16681/1984, Concentration 99.01 uM, Number of replicates 2.0, Standard deviation 1.5521383022614499 %",0.663%
same,inhibition,"Thailand/16681/1984, Concentration 198.0 uM, Number of replicates 2.0, Standard deviation 0.5964116239079592 %",5.64%
NC(=O)c1ccc(CNC(=O)c2ccc(OCc3ccccc3)cc2)cc1,inhibition,"Thailand/16681/1984, Concentration 49.5 uM, Number of replicates 2.0, Standard deviation 3.419970703357444 %",-0.579%
same,inhibition,"Thailand/16681/1984, Concentration 99.01 uM, Number of replicates 2.0, Standard deviation 3.9573061855257445 %",-0.365%
same,inhibition,"Thailand/16681/1984, Concentration 198.0 uM, Number of replicates 2.0, Standard deviation 3.324054675683989 %",-1.19%
O=Cc1ccc(N2CCC(C(=O)NC3CCN(C(=O)Nc4ccccc4)CC3)CC2)cc1,inhibition,[1],13%
Cc1cc(CO)c2cccc(NC(=O)[C@H](N)CCO)c2n1,inhibition,"Thailand/16681/1984, Concentration 49.95 uM, Number of replicates 2.0, Standard deviation 1.3748527891361653 %",4.54%
same,inhibition,"Thailand/16681/1984, Concentration 99.9 uM, Number of replicates 2.0, Standard deviation 1.6498238864430592 %",9.95%
c1ccc2c([C@H]3CCN(Cc4ccnn4C4CCOCC4)C3)c[nH]c2c1,inhibition,"Thailand/16681/1984, Concentration 49.5 uM, Number of replicates 2.0, Standard deviation 0.1745039264906869 %",0.381%
same,inhibition,"Thailand/16681/1984, Concentration 99.01 uM, Number of replicates 2.0, Standard deviation 0.15770381335260797 %",1.5%
same,inhibition,"Thailand/16681/1984, Concentration 198.0 uM, Number of replicates 2.0, Standard deviation 0.5787893521959783 %",3.57%
CC1(C)CC(O)CC(C)(C)N1C(=O)C1CCN(c2ccc(C=O)cc2)CC1,inhibition,[1],15.1%
C[C@@H](CNC(=O)c1ccn([C@H]2CCCNC2)n1)c1cccc(=O)[nH]1,inhibition,"Thailand/16681/1984, Concentration 49.5 uM, Number of replicates 2.0, Standard deviation 1.5269022655862485 %",-4.55%
same,inhibition,"Thailand/16681/1984, Concentration 99.01 uM, Number of replicates 2.0, Standard deviation 4.327641102496904 %",-0.849%
same,inhibition,"Thailand/16681/1984, Concentration 198.0 uM, Number of replicates 2.0, Standard deviation 3.1874263939292535 %",-1.67%
N#CC1(c2ccccc2)CCN(Cc2c[nH]c3ccccc23)CC1,inhibition,"Thailand/16681/1984, Concentration 49.5 uM, Number of replicates 2.0, Standard deviation 1.499116576383805 %",-0.312%
same,inhibition,"Thailand/16681/1984, Concentration 99.01 uM, Number of replicates 2.0, Standard deviation 1.285596358654136 %",0.831%
same,inhibition,"Thailand/16681/1984, Concentration 198.0 uM, Number of replicates 2.0, Standard deviation 1.1449542902700944 %",2.09%
CC(=O)N[C@@H](CCCCN)C(=O)Nc1cccc(Cc2cccc3c(CO)cc(C)nc23)c1,inhibition,"Thailand/16681/1984, Concentration 49.95 uM, Number of replicates 2.0, Standard deviation 0.858525740782908 %",-3.5%
same,inhibition,"Thailand/16681/1984, Concentration 99.9 uM, Number of replicates 2.0, Standard deviation 1.064156674332285 %",6.38%
COc1cccc(C2CCN(Cc3c[nH]c4ccccc34)CC2)c1,inhibition,"Thailand/16681/1984, Concentration 49.5 uM, Number of replicates 2.0, Standard deviation 0.36080661034090755 %",2.06%
same,inhibition,"Thailand/16681/1984, Concentration 99.01 uM, Number of replicates 2.0, Standard deviation 0.6028563828074571 %",4.21%
same,inhibition,"Thailand/16681/1984, Concentration 198.0 uM, Number of replicates 2.0, Standard deviation 0.9368600420126497 %",7.53%
O=Cc1ccc(N2CCC(C(=O)N3CCCCC[C@H]3c3ccco3)CC2)cc1,inhibition,[1],13.4%
Cc1cc(CO)c2cccc(Cc3cccc(C(=O)Nc4ccc(C(=O)O)o4)c3)c2n1,inhibition,"Thailand/16681/1984, Concentration 49.95 uM, Number of replicates 2.0, Standard deviation 0.4498774840540114 %",35.3%
same,inhibition,"Thailand/16681/1984, Concentration 99.9 uM, Number of replicates 2.0, Standard deviation 0.6611646932609445 %",80.5%
CC(C)(CO)NC(=O)c1cc(Cl)cc(NC(=O)COc2cc(Cl)cc(Cl)c2)c1,inhibition,"Thailand/16681/1984, Concentration 49.5 uM, Number of replicates 2.0, Standard deviation 14.819601369296757 %",9.17%
same,inhibition,"Thailand/16681/1984, Concentration 99.01 uM, Number of replicates 2.0, Standard deviation 0.9513012697965588 %",-0.479%
same,inhibition,"Thailand/16681/1984, Concentration 198.0 uM, Number of replicates 2.0, Standard deviation 0.47387842840702515 %",2.17%
COc1cccc(CC(=O)Nc2cccc(C(=O)O)c2)c1,inhibition,"Thailand/16681/1984, Concentration 49.5 uM, Number of replicates 2.0, Standard deviation 1.075367651742486 %",-1.33%
same,inhibition,"Thailand/16681/1984, Concentration 99.01 uM, Number of replicates 2.0, Standard deviation 0.5309986192009905 %",-1.52%
same,inhibition,"Thailand/16681/1984, Concentration 198.0 uM, Number of replicates 2.0, Standard deviation 0.10935133662395478 %",-0.132%
